Results reported in the supplement of paper PMC4967469.
A lower IC50 marks a more sensitive line; fits outside the tested doses are given as limits. AUC sums up the same curve from the lowest dose to the 256-fold higher top dose: 1 means no effect, lower means more sensitive. For part of these data: Any top dose called inferred was calculated from the reported fits. For part of these data: Drugs with an entry number were screened twice under separate entries, and the two screens often disagree.

How the values were obtained:
Assay in all cases: Viability of human cancer cell lines after 72 h of drug (GDSC screen)
AR-42 = compound: CC(C)[C@H](C(=O)Nc1ccc(C(=O)NO)cc1)c1ccccc1 [AR-42]; settings: top dose 5.12 µM; top dose inferred
Protocol: (§1)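 Human cancer cell lines in 384-well plates, medium with 10% serum, drug for 72 h over a 256-fold dose range (nine 2-fold or five 4-fold steps up to the top dose). Adherent lines were fixed and stained with the nucleic acid dye Syto60, suspension lines read with resazurin; signal relative to control wells, capped at 0 and 100%. One two-parameter sigmoid per drug and line, fitted in a mixed model over all curves with the slope shared within a line.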

GDC0941 = compound: CS(=O)(=O)N1CCN(Cc2cc3nc(-c4cccc5[nH]ncc45)nc(N4CCOCC4)c3s2)CC1 [GDC0941]; settings: top dose 4 µM; screen: GDSC drug entry 1527; top dose inferred
Protocol: as §1

CEP-701 = compound: C[C@]12O[C@H](C[C@]1(O)CO)n1c3ccccc3c3c4c(c5c6ccccc6n2c5c31)CNC4=O [CEP-701]; settings: top dose 2 µM; top dose inferred
Protocol: as §1

Pazopanib = compound: Cc1ccc(Nc2nccc(N(C)c3ccc4c(C)n(C)nc4c3)n2)cc1S(N)(=O)=O [Pazopanib]; settings: top dose 8 µM
Protocol: as §1

SB 216763 = compound: Cn1cc(C2=C(c3ccc(Cl)cc3Cl)C(=O)NC2=O)c2ccccc21 [SB 216763]; settings: top dose 10 µM; top dose inferred
Protocol: as §1

Cell Line | AUC (AR-42) | IC50 (AR-42) [µM] | AUC (GDC0941) | IC50 (GDC0941) [µM] | AUC (CEP-701) | IC50 (CEP-701) [µM] | AUC (Pazopanib) | IC50 (Pazopanib) [µM] | AUC (SB 216763) | IC50 (SB 216763) [µM]
8305C (thyroid, adherent) | 0.958 | > 5.12 | 0.744 | 1.59 | 0.694 | 0.524 | 0.933 | > 8 | 0.977 | > 10
A431 (skin, adherent) | 0.428 | 0.205 | 0.842 | 2.64 | 0.646 | 0.31 | 0.879 | 7.6 | 0.975 | > 10
A2780 (ovary, semi-adherent) | 0.516 | 0.355 | 0.808 | 2.15 | 0.521 | 0.143 | 0.862 | 7.28 | 0.985 | > 10
ABC-1 (lung adenocarcinoma, adherent) | 0.548 | 0.446 | 0.676 | 0.866 | 0.931 | > 2 | 0.966 | > 8 | 0.983 | > 10
AN3-CA (endometrium, adherent) | 0.722 | 1.46 | 0.518 | 0.282 | 0.784 | 0.938 | 0.203 | 0.0595 | 0.975 | > 10
AsPC-1 (pancreas, adherent) | 0.654 | 1.16 | 0.618 | 0.663 | 0.788 | 1.71 | 0.932 | > 8 | 0.963 | > 10
BHT-101 (thyroid, adherent) | 0.404 | 0.174 | 0.556 | 0.357 | 0.71 | 0.499 | 0.975 | > 8 | 0.896 | > 10
BICR10 (head and neck, adherent) | 0.923 | > 5.12 | 0.639 | 0.644 | 0.525 | 0.148 | 0.877 | > 8 | 0.952 | > 10
BICR78 (head and neck, adherent) | 0.508 | 0.337 | 0.641 | 0.654 | 0.454 | 0.092 | 0.982 | > 8 | 0.978 | > 10
BT-20 (breast, adherent) | 0.792 | 2.97 | 0.847 | > 4 | 0.827 | 1.63 | 0.95 | > 8 | 0.984 | > 10
BT-483 (breast, adherent) | 0.975 | > 5.12 | 0.87 | > 4 | 0.915 | > 2 | 0.973 | > 8 | 0.978 | > 10
BxPC-3 (pancreas, adherent) | 0.639 | 0.813 | 0.775 | 1.77 | 0.749 | 0.717 | 0.953 | > 8 | 0.937 | > 10
C3A (liver, adherent) | 0.737 | 1.58 | 0.891 | > 4 | 0.849 | 1.59 | 0.878 | > 8 | 0.983 | > 10
C32 (melanoma, adherent) | 0.966 | > 5.12 | 0.876 | > 4 | 0.686 | 0.432 | 0.984 | > 8 | 0.952 | > 10
C-33-A (cervix, adherent) | 0.324 | 0.103 | 0.859 | 3.35 | 0.732 | 0.575 | 0.916 | > 8 | 0.986 | > 10
CAKI-1 (kidney, adherent) | 0.511 | 0.349 | 0.732 | 1.63 | 0.532 | 0.16 | 0.819 | 7.93 | 0.961 | > 10
CAL-12T (non-small cell lung carcinoma, adherent) | 0.662 | 0.955 | 0.762 | 1.59 | 0.781 | 0.936 | 0.884 | > 8 | 0.925 | > 10
CAL-27 (head and neck, adherent) | 0.523 | 0.37 | 0.589 | 0.44 | 0.591 | 0.223 | 0.985 | > 8 | 0.844 | 7.37
CAL-29 (bladder, adherent) | 0.607 | 0.644 | 0.641 | 0.633 | 0.793 | 0.991 | 0.985 | > 8 | 0.938 | > 10
CAL-39 (cervix, adherent) | 0.718 | 1.36 | 0.637 | 0.606 | 0.7 | 0.466 | 0.985 | > 8 | 0.982 | > 10
CAL-62 (thyroid, adherent) | 0.608 | 0.622 | 0.766 | 1.41 | 0.731 | 0.548 | 0.945 | > 8 | 0.988 | > 10

Cell Line | AUC (AR-42) | IC50 (AR-42) [µM] | AUC (GDC0941) | IC50 (GDC0941) [µM] | AUC (CEP-701) | IC50 (CEP-701) [µM] | AUC (Pazopanib) | IC50 (Pazopanib) [µM] | AUC (SB 216763) | IC50 (SB 216763) [µM]
CAL-72 (osteosarcoma, adherent) | 0.954 | > 5.12 | 0.85 | 3.93 | 0.617 | 0.278 | 0.812 | 5.28 | 0.958 | > 10
CAL-120 (breast, adherent) | 0.687 | 1.25 | 0.706 | 1.14 | 0.607 | 0.268 | 0.909 | > 8 | 0.977 | > 10
CCK-81 (large intestine, adherent) | 0.44 | 0.221 | 0.969 | > 4 | 0.911 | > 2 | 0.981 | > 8 | 0.969 | > 10
CFPAC-1 (pancreas, adherent) | 0.968 | > 5.12 | 0.709 | 1.07 | 0.868 | > 2 | 0.917 | > 8 | 0.956 | > 10
CHL-1 (melanoma, adherent) | 0.417 | 0.192 | 0.645 | 0.615 | 0.238 | 0.0231 | 0.959 | > 8 | 0.948 | > 10
CHP-126 (neuroblastoma, suspension) | 0.851 | 4.1 | 0.975 | > 4 | 0.73 | 0.576 | 0.987 | > 8 | 0.987 | > 10
CHSA0011 (chondrosarcoma, adherent) | 0.855 | > 5.12 | 0.727 | 1.45 | 0.741 | 0.825 | 0.955 | > 8 | 0.971 | > 10
CHSA0108 (chondrosarcoma, adherent) | 0.343 | 0.109 | 0.553 | 0.358 | 0.552 | 0.177 | 0.93 | > 8 | 0.982 | > 10
CHSA8926 (chondrosarcoma, adherent) | 0.979 | > 5.12 | 0.654 | 0.804 | 0.769 | 1.09 | 0.832 | > 8 | 0.92 | > 10
COLO-678 (large intestine, semi-adherent) | 0.884 | > 5.12 | 0.963 | > 4 | 0.843 | > 2 | 0.985 | > 8 | 0.978 | > 10
COLO-679 (melanoma, adherent) | 0.736 | 1.66 | 0.906 | > 4 | 0.681 | 0.427 | 0.84 | 6.47 | 0.984 | > 10
COLO-680N (oesophagus, adherent) | 0.981 | > 5.12 | 0.967 | > 4 | 0.951 | > 2 | 0.98 | > 8 | 0.986 | > 10
COLO-684 (endometrium, suspension) | 0.789 | 2.58 | 0.757 | 1.54 | 0.761 | 0.793 | 0.973 | > 8 | 0.977 | > 10
COLO-800 (melanoma, adherent) | 0.886 | > 5.12 | 0.616 | 0.518 | 0.559 | 0.18 | 0.967 | > 8 | 0.981 | > 10
COR-L23 (large cell lung carcinoma, adherent) | 0.545 | 0.424 | 0.845 | 2.77 | 0.723 | 0.527 | 0.934 | > 8 | 0.985 | > 10
CP50-MEL-B (melanoma, adherent) | 0.586 | 0.549 | 0.879 | > 4 | 0.731 | 0.565 | 0.979 | > 8 | 0.976 | > 10
CS1 (bone, adherent) | 0.631 | 0.772 | 0.916 | > 4 | 0.696 | 0.477 | 0.908 | > 8 | 0.971 | > 10
Ca9-22 (head and neck, adherent) | 0.316 | 0.102 | 0.914 | > 4 | 0.794 | 0.843 | 0.979 | > 8 | 0.964 | > 10
Ca-Ski (cervix, adherent) | 0.537 | 0.408 | 0.676 | 0.827 | 0.528 | 0.15 | 0.946 | > 8 | 0.982 | > 10
CaR-1 (large intestine, adherent) | 0.633 | 0.897 | 0.737 | 1.71 | 0.539 | 0.168 | 0.914 | > 8 | 0.914 | > 10
Capan-2 (pancreas, adherent) | 0.973 | > 5.12 | 0.658 | 0.758 | 0.881 | > 2 | 0.9 | > 8 | 0.985 | > 10
